# In all, about 48,000 compounds went through this assay and about 1,200 (2.5%) were called active. Roughly 2% stayed inconclusive and do not appear here.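 Rule for the calls: active = activation of at least 60% and not above a set upper limit (about 1 call in 100 departs from these limits); inconclusive = activation of 40% to 60%, or above that upper limit; inactive = activation under 40%.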 Some of the results follow.
# Biological target: Probable G-protein coupled receptor 32 (Homo sapiens) (UniProt O75388)
# Assay: qHTS for Agonists of Human Resolvin D1 Receptor DRV1; note: 0% is about no effect
# Details: CHO-K1 GPR32 beta-arrestin PathHunter luminescence, 90 min; at 76.9 µM; hits give high values; zero percent set by DMSO-only wells
# In short: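 Luminescent readout of beta-Gal complementation quantifies ligand-induced beta-arrestin association with GPR32 in CHO-K1 cells; 90 min compound incubation at 37 °C, detection 1 h at room temperature.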
# UniProt O75388, sequence (O75388 whole entry, looked up): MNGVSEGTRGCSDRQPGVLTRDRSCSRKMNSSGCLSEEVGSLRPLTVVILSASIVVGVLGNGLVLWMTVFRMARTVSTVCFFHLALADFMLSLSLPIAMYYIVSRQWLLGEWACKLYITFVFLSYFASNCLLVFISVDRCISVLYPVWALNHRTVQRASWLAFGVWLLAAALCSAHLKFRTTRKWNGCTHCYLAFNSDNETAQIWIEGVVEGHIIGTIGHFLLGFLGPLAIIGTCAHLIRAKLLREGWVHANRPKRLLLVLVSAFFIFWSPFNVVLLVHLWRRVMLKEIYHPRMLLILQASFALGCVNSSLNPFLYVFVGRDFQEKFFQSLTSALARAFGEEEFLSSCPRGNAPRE
row,Compound,activation
1,COc1cccc(C2C(C(=O)Nc3ccccc3OC)=C(C)Nc3nc(-c4ccco4)nn32)c1 (stereo not drawn),inactive: -12.8%
2,CCCOc1cccc(C2c3c(oc4ccc(F)cc4c3=O)C(=O)N2CCc2ccc(OC)cc2)c1 (stereo not drawn),inactive: 8.97%
3,COc1ccc(-n2nc(C(=O)NCCc3ccc(OC)c(OC)c3)c3c4ccccc4n(C)c3c2=O)cc1,inactive: -16.1%
4,CCC(Sc1nnc2c3ccccc3n(CC)c2n1)C(=O)Nc1ccc(NC(C)=O)cc1 (stereo not drawn),inactive: -24.4%
5,Cc1ccccc1-c1nc(CS(=O)(=O)CC(=O)NCCCc2ccccc2)c(C)o1,active: 79.9%
6,CCC(C(=O)Nc1cc(C(F)(F)F)ccc1Cl)n1nc(C)c2sc3ccccc3c2c1=O (stereo not drawn),inactive: -13.5%
7,COc1ccccc1CNC(=O)Cn1nc(C)n2cccc2c1=O,inactive: -12.2%
8,COc1ccc(C(=O)NCC(c2ccc(Cl)cc2)N2CCCCC2)cc1 (stereo not drawn),inactive: -29.1%
9,COc1cccc(CNC(=O)c2sc3ncccc3c2-n2c(C)ccc2C)c1OC,inactive: -3.13%
10,COc1ccc(-c2noc(CSc3nc4ccc(C)cc4[nH]3)n2)cc1,inactive: 23.5%
11,O=C(Cn1nc(Cc2cccnc2)c2ccccc2c1=O)Nc1ccc(F)c(Cl)c1,inactive: -25.3%
12,O=C(Cn1cnc2onc(-c3ccc(F)cc3)c2c1=O)N1CCN(c2ccc(F)cc2)CC1,inactive: 19.2%
13,CCOc1ccc(-c2nnc(SCC(=O)Nc3ccc(C)cc3C)o2)cc1,inactive: 3.98%
14,COC(=O)c1ccc(NC(=O)n2ncc3c(C)cccc32)cc1,inactive: 13.1%
15,CCOC(=O)c1[nH]c2c(c1Cc1ccccc1C)C(=O)CC(c1ccccc1)C2 (stereo not drawn),inactive: -11.2%
16,COc1ccc(-c2cn3c(n2)sc2cc(C(=O)Nc4ccc(C)c(Cl)c4)ccc23)cc1,inactive: -5.98%
17,CCc1ccc(NC(=O)c2cnn(-c3c(C)cccc3C)c2C2CCN(C(=O)OC(C)(C)C)CC2)cc1,inactive: -14%
18,Cc1cc(=O)[nH]c2nnc(SCc3ccccc3F)n12,inactive: 5.57%
19,CC1(C)N=C(SCc2ccc(Cl)cc2)c2ccccc2N1,inactive: 0.917%
20,O=C(NCCc1ccccc1)C(=O)NCC(c1cccs1)S(=O)(=O)c1cccs1 (stereo not drawn),inactive: -2.06%
21,Cc1c(C(=O)N2CCCCCC2)c(S(=O)(=O)Nc2cccc(C#N)c2)c(C)n1C,inactive: 0.64%
22,CCOC(=O)c1c(C)[nH]c(C)c1S(=O)(=O)N1CCC(C(=O)Nc2ccccc2CC)CC1,inactive: 40.1%
23,Cc1ccc(S(=O)(=O)N2CCN(Cc3cc(=O)n4nc(-c5ccccc5Cl)sc4n3)CC2)cc1,inactive: 12.1%
24,Cn1c(=O)cc(SCC(=O)NCc2ccc(F)cc2)c2cc(Cl)ccc21,inactive: -4.26%
25,COc1ccc(NC(=O)N2CCCn3nc(C)cc32)cc1OC,inactive: -5%
26,CCc1ccc(-n2nc(CO)c(C(=O)NCc3ccccc3Cl)n2)cc1,inactive: -11.4%
27,Cn1c(=O)c(=O)n(C)c2cc(NS(=O)(=O)c3ccc(Br)cc3)c(Cl)cc21,inactive: -14.7%

row,Compound,activation
1,CCCCNC(=O)CSc1nc2cc3c(cc2c(=O)n1Cc1ccc(C(=O)NCCc2ccc(OC)c(OC)c2)cc1)OCO3,inactive: -16.4%
2,CCn1c(C(=O)NCc2ccccc2Cl)cc2sc(Cl)cc21,inactive: -14.5%
3,COc1ccc(Cc2nc3ccccc3n2Cc2ccccc2C)cc1,inactive: -36.8%
4,O=C(NCc1cccc(Cl)c1)c1ccc(NC(=O)N2CCSc3ccccc32)cc1,inactive: -23.5%
5,COc1ccc(-c2cc3ccc(O)c(CN4CCCC(C)C4)c3oc2=O)cc1OC (stereo not drawn),inactive: -0.0448%
6,CC(Oc1ccccc1)C(=O)Nc1ccc(C(=O)OCc2cc(=O)n3nc(C4CC4)sc3n2)cc1 (stereo not drawn),inactive: -12.2%
7,O=C(CCC(=O)N1Cc2ccccc2Oc2ncccc21)NCc1cccc(Cl)c1,inactive: -7.45%
8,Cc1cccc(-c2nc3c4ccccc4nc(N4CCN(c5cccc(Cl)c5)CC4)n3n2)c1,inactive: 14.7%
9,Cc1cccc(NC(=O)CSc2nc(-c3cccs3)nc3cc(=O)[nH]n23)c1,inactive: -21.6%
10,O=C(CSc1nc2ccccc2nc1Cc1ccccc1)N1CCc2ccccc21,inactive: 0.83%
11,NC(=O)NC(=O)Cc1ccccc1,inactive: -9.92%
12,CCc1ccccc1NC(=O)Cn1c(=O)n(CCc2ccccc2)c(=O)c2sc3ccccc3c21,inactive: 0.362%
13,COc1ccc(-c2c3c(nc4sc(C(=O)Nc5cccc(OC)c5)c(N)c24)CC(C)(C)CC3=O)cc1,inactive: -11.3%
14,Cc1cc(C)n2nc(CNS(=O)(=O)c3cccc(Cl)c3)nc2n1,inactive: -3.12%
15,Cc1cc(C(=O)N2CCN(c3ccccc3F)CC2)c2c(C)nn(-c3ccccc3)c2n1,inactive: -19.6%
16,COc1ccc(CCNC(=O)c2ccc(Cn3c(=O)c4cccn4c4cccnc43)cc2)cc1OC,inactive: -5.79%
17,Cc1cc(C)c2oc(-c3cccc(NC(=O)c4cccc(F)c4)c3C)nc2c1,inactive: -6.28%
18,CCCCN(C)C(=O)CSc1c2c(nc3ccc(Cl)cc13)CCCC2,inactive: -16.4%
19,CCC(C)NC(=O)c1ccc(CNS(=O)(=O)c2ccc3c(c2)C(C)(C)C(=O)N3C)cc1 (stereo not drawn),inactive: -7.99%
20,Cc1cccc(Cn2c(=O)n(-c3cc(C)cc(C)c3)c(=O)c3oc4ccccc4c32)c1,inactive: -15.5%
21,CCc1nn(CCCC(=O)NCc2ccccc2OC)c(=O)c2cc3occc3n12,inactive: -18.9%
22,CCc1ccc(S(=O)(=O)Nc2ccc3c(c2)sc(=O)n3C)cc1,inactive: -0.442%
23,Cc1ccc(Cl)cc1NC(=O)CN1C=NS(=O)(=O)c2ccccc21,inactive: 1.85%
24,Cc1ccc(Cl)cc1N1CCN(C(=O)C2CCN(S(=O)(=O)c3cn(C)cn3)CC2)CC1,inactive: -10.9%
25,Cc1cccc(N2CCN(CCCNC(=O)Cn3ncc4c([nH]c5ccccc54)c3=O)CC2C)c1 (stereo not drawn),inactive: -14.8%
26,Cc1cc(C)c2c(n1)nn1c(C)c(CCC(=O)Nc3cccc(C)c3C)c(C)nc21,inactive: 11.5%

# From PubChem BioAssay AID1346428 (National Center for Advancing Translational Sciences (NCATS), 2018)
